{
  "source": "PubChem BioAssay AID1508623",
  "about": "(National Center for Advancing Translational Sciences (NCATS), 2021)",
  "note": "Hit rate of the full screen: of about 48,000 compounds, about 450 (0.94%) were called active. The shares of active, inactive and inconclusive entries below differ from those in the screen. Calls come from the whole dose curve; as a rule, active = well fitted inhibition curve with a large enough effect; inconclusive = small, poorly fitted or top-dose-only effect; inactive = no such curve, though single readings can be large or run the other way. Potencies beside an inconclusive call are fits to weak or partial responses and may not hold up. Potency is the fitted concentration of half-maximal effect; tags give direction and shape of the fitted curve.",
  "data": [
    {"assay": "Primary qHTS for Identification of Small Molecule Inhibitors of Huntingtin Promoter Activity; note: nearly all actives have a fitted effect of over 50% in size", "settings": "HEK293 HTT promoter firefly luciferase reporter (activity 0% = vehicle and -100% = no light), 24 h; series mostly up to 57.5 µM", "outline": "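Luminescence was read after Dual-Glo reagent and a 10 min room-temperature incubation. Values were normalized to vehicle (0% activity) and zero RLU (-100% activity). Reporter HEK293 cells had been exposed to compounds (up to 57.5 uM final) for 24 h.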", "values": [
      {"smiles": "CN(C(=O)CSc1nc2ccc(NC(=O)CCc3ccccc3)cc2s1)c1ccccc1", "Potency": "inconclusive: 28.2 µM [inhibitor, single point]"},
      {"smiles": "CCOc1ccc(-c2cc(C(=O)N3CCN(c4cccc(C)c4)C(C)C3)c3ccccc3n2)cc1", "note": "(configuration not stated)", "Potency": "inactive"},
      {"smiles": "CCc1ccccc1NC(=O)C(=O)NCC(c1cccnc1)N1CCc2ccccc21", "note": "(configuration not stated)", "Potency": "inconclusive: 31.6 µM [inhibitor, single point]"},
      {"smiles": "CCOC(=O)c1ccc(NC(=O)C2CC(=O)N(c3ccc(C(C)C)cc3)C2)cc1", "note": "(configuration not stated)", "Potency": "inactive"},
      {"smiles": "Cc1ccc(NC(=O)NCC2CCN(Cc3cccc(Cl)c3)CC2)cc1Cl", "Potency": "inconclusive: 17.8 µM [inhibitor, partial curve]"},
      {"smiles": "Cc1cccc(NC(=O)CCNS(=O)(=O)c2cccc3nonc23)c1", "Potency": "inactive"},
      {"smiles": "COc1cccc(-n2c(-c3ccco3)nc3c(cnn3-c3ccc(C)cc3)c2=O)c1", "Potency": "inconclusive: 20 µM [inhibitor, single point]"},
      {"smiles": "CCN1c2ccccc2-c2nc(SCC(=O)Nc3c(C)cc(C)cc3C)ncc2S1(=O)=O", "Potency": "inconclusive: 5.62 µM [inhibitor, partial curve]"},
      {"smiles": "O=C(CCS(=O)(=O)c1nc(-c2ccc3c(c2)OCO3)cc(C(F)(F)F)n1)Nc1ccc(F)c(Cl)c1", "Potency": "inconclusive: 39.8 µM [inhibitor, single point]"},
      {"smiles": "CC(=O)N1CCCc2cc(S(=O)(=O)N3CCCC(C(=O)Nc4cccc(F)c4)C3)ccc21", "note": "(configuration not stated)", "Potency": "inconclusive: 25.1 µM [inhibitor, partial curve]"},
      {"smiles": "NC(=NCc1ccccc1)NC(=O)c1nc(Cl)c(N)nc1N", "Potency": "inconclusive: 6.11 µM [inhibitor, full curve, poor fit]"},
      {"smiles": "Cc1ccc(NC(=O)CCNS(=O)(=O)c2ccc3c(c2)CCN3C(=O)C2CC2)c(Cl)c1", "Potency": "inconclusive: 39.8 µM [inhibitor, single point]"},
      {"smiles": "CCCn1c2ccccc2c2cnn(CC(=O)NCCc3ccc(OCC)c(OCC)c3)c(=O)c21", "Potency": "inconclusive: 39.8 µM [inhibitor, single point]"},
      {"smiles": "COCCNC(=O)c1ccc(-n2c(-c3ccccc3)cc3c2CCC(C)C3)cc1", "note": "(configuration not stated)", "Potency": "inconclusive: 31.6 µM [inhibitor, single point]"},
      {"smiles": "Cc1ccc(C(=O)NCc2ccc3c(c2)CCN3C(=O)c2ccc(C)cc2)cc1", "Potency": "inconclusive: 20 µM [inhibitor, partial curve, poor fit]"},
      {"smiles": "Cc1cc(Nc2cccc(Cl)c2)nc2ccc(NC(=O)Cc3ccc(Cl)cc3)cc12", "Potency": "inconclusive: 39.8 µM [inhibitor, single point]"},
      {"smiles": "COc1ccccc1Nc1c2c(nc3ccc(NC(=O)c4ccc(OC)c(OC)c4)cc13)CCCC2", "Potency": "inactive"},
      {"smiles": "Cc1ccc(-n2ncc(C(=O)NCc3ccccc3)c2C2CCN(C(=O)OC(C)(C)C)CC2)cc1", "Potency": "inconclusive: 28.2 µM [inhibitor, single point]"},
      {"smiles": "Cc1ccc(Cl)cc1Nc1sc(C(=O)c2ccc(F)cc2)c(N)c1S(C)(=O)=O", "Potency": "inconclusive: 25.1 µM [inhibitor, single point]"},
      {"smiles": "O=C(CSc1nc(=O)n(Cc2ccco2)c2c1CCC2)Nc1cccc(F)c1", "Potency": "inconclusive: 11.2 µM [inhibitor, single point]"},
      {"smiles": "COc1ccccc1N1CCN(C(c2ccc(Cl)cc2)c2nnc(-c3cccc(F)c3)o2)CC1", "note": "(configuration not stated)", "Potency": "inconclusive: 39.8 µM [inhibitor, single point]"},
      {"smiles": "N#Cc1c(O)c2c(-c3ccc(-c4ccccc4O)cc3)csc2[nH]c1=O", "Potency": "inactive"},
      {"smiles": "CCCSc1oc(-c2ccco2)nc1S(=O)(=O)c1ccc(Cl)cc1", "Potency": "inconclusive: 28.2 µM [inhibitor, partial curve, poor fit]"},
      {"smiles": "COc1ccc(CC(=O)Nc2sc3c(c2C(=O)Nc2cccc(C)c2)CCCCC3)cc1", "Potency": "inconclusive: 28.2 µM [inhibitor, partial curve, poor fit]"},
      {"smiles": "COC(=O)C(NC(=O)CCc1c(C)nc2cc(-c3cccc(F)c3)nn2c1C)C(C)C", "note": "(configuration not stated)", "Potency": "active: 11.2 µM"},
      {"smiles": "CCOc1ccc(CNC(=O)Nc2ccc3c(c2)N(C)C(=O)c2ccccc2S3)cc1", "Potency": "inconclusive: 20 µM [inhibitor, partial curve, poor fit]"},
      {"smiles": "CCC(C)n1c(=N)c(C(=O)NC2CCCC2)cc2c(=O)n3ccccc3nc21", "note": "(configuration not stated)", "Potency": "inactive"},
      {"smiles": "N=C(N)c1ccc(OCCCCCOc2ccc(C(=N)N)cc2)cc1", "Potency": "inconclusive: 19.3 µM [inhibitor, partial curve]"},
      {"smiles": "COc1ccc2sc(N(Cc3cccnc3)C(=O)c3cccs3)nc2c1", "Potency": "active: 14.1 µM"},
      {"smiles": "Cc1ccc(-n2ncc3c(NC4CCCC4)ncnc32)cc1", "Potency": "inconclusive: 35.5 µM [inhibitor, single point]"},
      {"smiles": "CCCn1cc(S(=O)(=O)c2ccccc2)c(=O)c2cc(F)c(N3CCCCCC3)cc21", "Potency": "inconclusive: 35.5 µM [inhibitor, single point]"},
      {"smiles": "O=C(Nc1ccc2nc(SCCOc3ccccc3Cl)sc2c1)c1ccco1", "Potency": "inconclusive: 39.8 µM [inhibitor, single point]"},
      {"smiles": "COc1cccc(-c2nn(C)c3sc(C(=O)NCCc4cccc(C)c4)cc23)c1", "Potency": "inconclusive: 35.5 µM [inhibitor, partial curve, poor fit]"},
      {"smiles": "CCOC(=O)C1CCCN(C(=O)Cn2ncc3c(C)n(Cc4ccc(F)cc4)c(C)c3c2=O)C1", "note": "(configuration not stated)", "Potency": "inconclusive: 15.8 µM [inhibitor, partial curve, poor fit]"},
      {"smiles": "CCOc1ccc2c(c1)c(=O)c(C(=O)c1ccc3c(c1)OCO3)cn2Cc1cccc(F)c1", "Potency": "inconclusive: 28.2 µM [inhibitor, single point]"},
      {"smiles": "COC(=O)Nc1nc2ccc(C(=O)c3ccccc3)cc2[nH]1", "Potency": "inactive"},
      {"smiles": "CCn1c(=O)cc(SCC(=O)Nc2cc(Cl)ccc2OC)c2ccccc21", "Potency": "inconclusive: 39.8 µM [inhibitor, single point]"},
      {"smiles": "Cc1ccccc1S(=O)(=O)Cc1ccc(C(=O)NC2CCCCC2)o1", "Potency": "inconclusive: 31.6 µM [inhibitor, partial curve, poor fit]"},
      {"smiles": "Cc1ccc(OC(=O)c2cc(-c3ccc4c(c3)OCCO4)on2)cc1C", "Potency": "inactive"},
      {"smiles": "CCOc1cccc2cc(-c3nc4ccc(C(=O)O)cc4[nH]3)c(=O)oc12", "Potency": "inconclusive: 8.91 µM [inhibitor, partial curve, poor fit]"},
      {"smiles": "COc1ccc(C)cc1S(=O)(=O)N1CCN(c2cccc(Cl)c2)CC1", "Potency": "inconclusive: 28.2 µM [inhibitor, single point]"},
      {"smiles": "Cc1ccc(C)c(CN2C(=O)c3ccccc3S(=O)(=O)c3ccc(C(=O)N4CCCCCC4)cc32)c1", "Potency": "inconclusive: 28.2 µM [inhibitor, partial curve]"},
      {"smiles": "c1ccc2c(Cc3c[nH]c4ccccc34)c[nH]c2c1", "Potency": "inconclusive: 4.85 µM [inhibitor, full curve]"},
      {"smiles": "COc1cc(NC(=O)CCc2nc(-c3cccs3)no2)cc(OC)c1OC", "Potency": "inconclusive: 39.8 µM [inhibitor, single point]"},
      {"smiles": "Cc1ccc(C(=O)CC2(O)C(=O)N(CCc3ccccc3)c3ccc(Cl)cc32)cc1", "note": "(configuration not stated)", "Potency": "inconclusive: 39.8 µM [inhibitor, single point]"},
      {"smiles": "Cc1cccc(NC(=O)CSc2nc(-c3ccccc3)cn2-c2ccccc2)c1C", "Potency": "inconclusive: 28.2 µM [inhibitor, single point]"},
      {"smiles": "COc1ccc(Nc2ncc(C(=O)N3CCN(c4cccc(Cl)c4)CC3)c3ccccc23)cc1", "Potency": "inconclusive: 20 µM [inhibitor, partial curve, poor fit]"},
      {"smiles": "COCCn1ccc2c(OCC(=O)Nc3cccc(OC)c3)cccc2c1=O", "Potency": "inactive"},
      {"smiles": "Cc1nc(C)c(-c2ccc(SCC(=O)Nc3ccc(C)c(F)c3)nn2)s1", "Potency": "inconclusive: 35.5 µM [inhibitor, single point]"},
      {"smiles": "Cc1ccc(CSCc2ccc(C(=O)NCCc3ccc(Cl)cc3)o2)cc1", "Potency": "inconclusive: 22.4 µM [inhibitor, single point]"},
      {"smiles": "CCOC(=O)C1=C(CS(=O)(=O)c2ccc(C)cc2)NC(=O)NC1c1ccc(C(C)C)cc1", "note": "(configuration not stated)", "Potency": "inconclusive: 31.6 µM [inhibitor, partial curve, poor fit]"},
      {"smiles": "CN(C(=O)c1ccc2c(c1)N(Cc1cccc(Cl)c1)C(=O)c1ccccc1S2=O)C1CCCCC1", "note": "(configuration not stated)", "Potency": "inconclusive: 17.8 µM [inhibitor, partial curve, poor fit]"},
      {"smiles": "Cn1cnc(-c2cc3nccc(Oc4ccc(NC(=S)NC(=O)Cc5ccccc5)cc4F)c3s2)c1", "Potency": "inactive"},
      {"smiles": "COc1ccc(-c2cn3nc(N4CCCC(C(=O)Nc5ccc(C)c(C)c5)C4)sc3n2)cc1", "note": "(configuration not stated)", "Potency": "inactive"},
      {"smiles": "COc1cccc(-c2nn(C)c3sc(C(=O)NCCc4ccc(Cl)cc4)cc23)c1", "Potency": "inconclusive: 31.6 µM [inhibitor, single point]"},
      {"smiles": "CCOc1ccc(NC(=O)NCCCN2CCN(c3ccc(F)cc3)CC2)cc1", "Potency": "inactive"},
      {"smiles": "CC(C)c1ccc(OCC(=O)Nc2c(Cl)ccc3nsnc23)cc1", "Potency": "inactive"},
      {"smiles": "Cc1ccccc1-n1cc(-c2ccccc2)nc1SCC(=O)Nc1ccc(F)cc1", "Potency": "inconclusive: 20 µM [inhibitor, single point]"},
      {"smiles": "COc1ccc(-n2c(=O)c3c4c(sc3n(Cc3cc(C)ccc3C)c2=O)CN(C(C)=O)CC4)c(OC)c1", "Potency": "inconclusive: 35.5 µM [inhibitor, single point]"},
      {"smiles": "Cc1ccc(N2CC(NC(=O)c3ccc(S(=O)(=O)N4CCOCC4)cc3)CC2=O)cc1C", "note": "(configuration not stated)", "Potency": "inconclusive: 31.6 µM [inhibitor, partial curve, poor fit]"},
      {"smiles": "Cc1cc2oc(=O)c(CC(=O)O)c(C)c2c2occ(-c3ccc(F)cc3)c12", "Potency": "inactive"},
      {"smiles": "O=C(c1ccc2c(c1)OCCO2)N(Cc1cccnc1)c1nc2c(F)cccc2s1", "Potency": "inconclusive: 39.8 µM [inhibitor, single point]"}
    ]}
  ]
}
